Measured values: the RNAGym collection of RNA variant scans (doi:10.1073/pnas.2313332121)
This sample is rich in variants without activity.

B1: TPR 5TU (parent)
chain: GGAUCUUCUCGAUCUAACAAAAAAGACAAAUCUGCCACAAAGCUUGAGAGCAUCUUCGGAUGCAGAGGCGGCAGCCUUCGGUGGCGCGAUAGCGCCAACGUUCUCAACUAUGACACGCAAAACGCGUGCUCCGUUGAAUGGAGUUUAUCAUG

Variants of: B1
Experiment: polymerase ribozyme fitness, log enrichment relative to wild type (log ratio); higher = more active; in vitro selection for triplet polymerase activity
Procedure, shortened: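 A single round of triplicate in vitro selection, including frozen incubation at −7 °C, was applied to PCR-built, transcribed mutant libraries of each subunit of a heterodimeric triplet polymerase ribozyme. Illumina sequencing of input and output libraries retained genotypes with ≥10 input reads and ≥1 read per output. Fitness is the base-2 logarithm of genotype enrichment divided by wild-type enrichment, from inverse-variance-weighted replicate averages.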
In the case of A19U C75A G84A, the “polymerase ribozyme fitness (log ratio)” value is reported as at most -4.2. For A19U C75U U139G G140A U151G, the “polymerase ribozyme fitness (log ratio)” value was at most -4.2. With A19U C85U U102G A110U U111A A115U A119C A137U the “polymerase ribozyme fitness (log ratio)” value was at most -4.2. For A19U C87A, the “polymerase ribozyme fitness (log ratio)” value was at most -4.2. With A19U C87U the “polymerase ribozyme fitness (log ratio)” value was -0.845. With A19U C93U C95A G100U A113C the “polymerase ribozyme fitness (log ratio)” value was at most -4.2. For A19U C96G A142C, the “polymerase ribozyme fitness (log ratio)” value was -2.72. With A19U C114G the “polymerase ribozyme fitness (log ratio)” value was -3.52. With A19U G25A A41C G46A U55A G59A G68C C72G C96U A97G G100U U145G the “polymerase ribozyme fitness (log ratio)” value was at most -4.2. With A19U G25A C38G G67C C96U A107U C108A A110C A122C the “polymerase ribozyme fitness (log ratio)” value was at most -4.2. For A19U G34A A47U C76A C116U, the “polymerase ribozyme fitness (log ratio)” value was at most -4.2. In the case of A19U G34A A60C G83A C96G U101C U144C, the “polymerase ribozyme fitness (log ratio)” value is reported as at most -4.2. In the case of A19U G34U G88C C93U, the “polymerase ribozyme fitness (log ratio)” value is reported as at most -4.2. In the case of A19U G42U A113G A121U G124C U148A, the “polymerase ribozyme fitness (log ratio)” value is reported as at most -4.2. In the case of A19U G46A C51U A91G G124U U139A, the “polymerase ribozyme fitness (log ratio)” value is reported as at most -4.2. With A19U G46A C93G C95U U104G the “polymerase ribozyme fitness (log ratio)” value was at most -4.2. With A19U G46A G84U C103A C105G C108G C131G G141C the “polymerase ribozyme fitness (log ratio)” value was at most -4.2. With A19U G48A U61G A121G G124A A138C the “polymerase ribozyme fitness (log ratio)” value was at most -4.2. In the case of A19U G50U, the “polymerase ribozyme fitness (log ratio)” value is reported as -0.0269. For A19U G58A G83A U139A A142U, the “polymerase ribozyme fitness (log ratio)” value was at most -4.2. For A19U G58C C87U C95U C116G, the “polymerase ribozyme fitness (log ratio)” value was -1.52. In the case of A19U G58U G86U C95U A122G G140U G141U, the “polymerase ribozyme fitness (log ratio)” value is reported as at most -4.2. In the case of A19U G59A C85G G86A U101C, the “polymerase ribozyme fitness (log ratio)” value is reported as at most -4.2. In the case of A19U G62C G65C C96A, the “polymerase ribozyme fitness (log ratio)” value is reported as at most -4.2. With A19U G68C C93G C131G the “polymerase ribozyme fitness (log ratio)” value was at most -4.2. In the case of A19U G68U C96U U144G G152U, the “polymerase ribozyme fitness (log ratio)” value is reported as at most -4.2. With A19U G71U G83C U146G the “polymerase ribozyme fitness (log ratio)” value was at most -4.2. For A19U G80A, the “polymerase ribozyme fitness (log ratio)” value was -0.164. In the case of A19U G83A, the “polymerase ribozyme fitness (log ratio)” value is reported as -0.555. For A19U G88C, the “polymerase ribozyme fitness (log ratio)” value was at most -4.2. For A19U G88U C93A, the “polymerase ribozyme fitness (log ratio)” value was at most -4.2. In the case of A19U G94C, the “polymerase ribozyme fitness (log ratio)” value is reported as -0.449. In the case of A19U G136C, the “polymerase ribozyme fitness (log ratio)” value is reported as -3.86. In the case of A19U U31C U53G C95U C108G, the “polymerase ribozyme fitness (log ratio)” value is reported as at most -4.2. In the case of A19U U31G G74U A91U C103A A147C, the “polymerase ribozyme fitness (log ratio)” value is reported as at most -4.2. For A19U U33A A40C G86C A113G, the “polymerase ribozyme fitness (log ratio)” value was at most -4.2. In the case of A19U U44A A47C G58C G83A, the “polymerase ribozyme fitness (log ratio)” value is reported as at most -4.2. For A19U U44A U53A A73U C85U G136A, the “polymerase ribozyme fitness (log ratio)” value was at most -4.2. With A19U U44G U77C C93U G117A A138C U145G U151A the “polymerase ribozyme fitness (log ratio)” value was at most -4.2. In the case of A19U U45A U101G C131G, the “polymerase ribozyme fitness (log ratio)” value is reported as at most -4.2. With A19U U53A A60G G117U G141U the “polymerase ribozyme fitness (log ratio)” value was at most -4.2. In the case of A19U U53A G62C C85U U101G U146A, the “polymerase ribozyme fitness (log ratio)” value is reported as at most -4.2. With A19U U53C C87G the “polymerase ribozyme fitness (log ratio)” value was at most -4.2. For A19U U55A C63A A142U U148C, the “polymerase ribozyme fitness (log ratio)” value was at most -4.2. For A19U U56A A60G C75U C93A C118U U146A, the “polymerase ribozyme fitness (log ratio)” value was -3.86. For A19U U56A A60U A91G G94C, the “polymerase ribozyme fitness (log ratio)” value was at most -4.2. In the case of A19U U56A C75G C76U C95U, the “polymerase ribozyme fitness (log ratio)” value is reported as at most -4.2. With A19U U56G C57A G88A the “polymerase ribozyme fitness (log ratio)” value was at most -4.2. In the case of A20C A21G U55A U56A A60U A64C G71A G92U U146G, the “polymerase ribozyme fitness (log ratio)” value is reported as at most -4.2. In the case of A20C A21U G25C A41C A60C C69G C85A C108A C118A, the “polymerase ribozyme fitness (log ratio)” value is reported as at most -4.2. In the case of A20C A22C C43U G83C, the “polymerase ribozyme fitness (log ratio)” value is reported as at most -4.2. For A20C A22G A29C C87A C96A, the “polymerase ribozyme fitness (log ratio)” value was at most -4.2. For A20C A22G A37U C69U A98G G126U G140C, the “polymerase ribozyme fitness (log ratio)” value was at most -4.2. For A20C A22U G34A A47C C96U A142U, the “polymerase ribozyme fitness (log ratio)” value was at most -4.2. For A20C A23C A47C C93U, the “polymerase ribozyme fitness (log ratio)” value was at most -4.2. In the case of A20C A23U A29C A41C G48C A49U G86A C87G A110C C131G G152U, the “polymerase ribozyme fitness (log ratio)” value is reported as at most -4.2. For A20C A23U A30U C35A G42U G50C G86A U127A G133U A142U, the “polymerase ribozyme fitness (log ratio)” value was at most -4.2. With A20C A23U A39C C96U C125U the “polymerase ribozyme fitness (log ratio)” value was at most -4.2. For A20C A23U A49C C93U C99G, the “polymerase ribozyme fitness (log ratio)” value was at most -4.2. With A20C A24G A40C C69A C75G C87U G88C U102C G124A G133C U135C A147C the “polymerase ribozyme fitness (log ratio)” value was at most -4.2. With A20C A26C C57G G136U A138C the “polymerase ribozyme fitness (log ratio)” value was at most -4.2. With A20C A26G A29G G48A C99U A119C U134G the “polymerase ribozyme fitness (log ratio)” value was at most -4.2. In the case of A20C A28C A37U G42U G71A C85U C99G A106G C131G, the “polymerase ribozyme fitness (log ratio)” value is reported as at most -4.2. In the case of A20C A28C G48C U53G C75G C93A, the “polymerase ribozyme fitness (log ratio)” value is reported as at most -4.2. In the case of A20C A28U G62U G74C C79G G86A U111C G117C A150U, the “polymerase ribozyme fitness (log ratio)” value is reported as at most -4.2. In the case of A20C A29G C43G C69U A73G C96G A107U, the “polymerase ribozyme fitness (log ratio)” value is reported as at most -4.2. With A20C A30U U55G C96G C108A U145C the “polymerase ribozyme fitness (log ratio)” value was at most -4.2. In the case of A20C A39C A73G G83A A91U G140U U145C, the “polymerase ribozyme fitness (log ratio)” value is reported as at most -4.2. With A20C A39U U53G U82G the “polymerase ribozyme fitness (log ratio)” value was at most -4.2. With A20C A40G U61A C63A G65A C93A G136C the “polymerase ribozyme fitness (log ratio)” value was at most -4.2. In the case of A20C A41U G59A A60U C69G G86A C103G, the “polymerase ribozyme fitness (log ratio)” value is reported as at most -4.2. For A20C A41U G68C G83A G100U A115G C116U C123G, the “polymerase ribozyme fitness (log ratio)” value was at most -4.2. For A20C A49C G94A A138G A147U, the “polymerase ribozyme fitness (log ratio)” value was at most -4.2. In the case of A20C A49G C51U A106G C123A G140U, the “polymerase ribozyme fitness (log ratio)” value is reported as at most -4.2. For A20C A52C G71C C85U G140A, the “polymerase ribozyme fitness (log ratio)” value was at most -4.2. For A20C A52G A142G, the “polymerase ribozyme fitness (log ratio)” value was -2.02. With A20C A52U C99G A106U C129A C132G the “polymerase ribozyme fitness (log ratio)” value was at most -4.2. With A20C A52U G67C G88C the “polymerase ribozyme fitness (log ratio)” value was at most -4.2. In the case of A20C A60C G81A C99A C103G G140C G143U, the “polymerase ribozyme fitness (log ratio)” value is reported as at most -4.2. With A20C A66G G80U G81U G133U the “polymerase ribozyme fitness (log ratio)” value was at most -4.2. In the case of A20C A73G C85G C96A G141C, the “polymerase ribozyme fitness (log ratio)” value is reported as at most -4.2. With A20C A97G the “polymerase ribozyme fitness (log ratio)” value was -0.83. With A20C C27G G58C C103G G143U the “polymerase ribozyme fitness (log ratio)” value was at most -4.2. For A20C C32G G59C C85U C95G A97G G140A U151C, the “polymerase ribozyme fitness (log ratio)” value was at most -4.2.
